# According to the supplement of paper PMC8728848:
# Some of the results follow.
# B1: PX14367A-bth-493-35-493 (Bacteroides thetaiotaomicron) (protein)
# chain: VSSDQVAVAGNAERLFNGAWYNLFEYGTTYANIGYRALQCQDDMMASDVVSRPKYGFNSSYQFNDVAIPSDGRTSFAWYLIYKTIDNCNTAISIKGDSEELRQAQGQALALRAFCYLHLVQHYQFTYLKDKDAPCVPIYTEPTTSGTKPKGKSTVAQVYQQIFDDLNLAQDYLTNYVRKGDGQKFKPNTDVVNGLMARAYLLTGQWGEAAKAAEAARKGYSLMTTTAEYEGFNNISNKEWIWGSPQTLSQSDASYNFYYLDATYVGAYSSFMADPHLMDTFVKGDIRLPLFQWMREGYLGYKKFHMRSDDTADLVLMRSAEMYLIEAEAKVRDGVALDQAVAPLNTLRTARGVGNYDVTGKTKEQVIDEILMERRRELWGEGFGITDVLRNQKAVERMALSEDMQKTEVDCWQEGGSFAKRNPLGHWFLNFPDGKAFSANSSYYLYAIPEKEINANPNL
# Key:
# Test in all cases: glycan array binding signal (z-score within array); higher = stronger binding
# Settings in all cases: glycan notation: IUPAC condensed, linker removed
# [1] = molecular target: GalNAc(b1-4)GlcNAc(b1-2)Man
# Method in brief: (§1)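 Glycan array data were curated from 3228 arrays in the Consortium for Functional Glycomics database and kept only where the protein sequence was available. Glycan names were converted to IUPAC-condensed notation, and columns mapping to the same glycan were averaged. The binding signal is a within-array Z-score, averaged across arrays of the same protein sequence at different concentrations or buffers and across linkers. Negative Z-scores can be read as non-binding.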
# [2] = molecular target: GalNAc(b1-4)GlcNAc(b1-2)Man(a1-3)[GalNAc(b1-4)GlcNAc(b1-2)Man(a1-6)]Man(b1-4)GlcNAc(b1-4)GlcNAc
# Method in brief: as §1
# [3] = molecular target: GalNAc(b1-4)GlcNAc(b1-3)GalNAc(b1-4)GlcNAc
# Method in brief: as §1
# GalNAc(b1-4)GlcNAc6S = molecular target: GalNAc(b1-4)GlcNAc6S
# Method in brief: as §1
# GalNAc(b1-6)GalNAc = molecular target: GalNAc(b1-6)GalNAc
# Method in brief: as §1
# GalNAc3S(b1-4)GlcNAc = molecular target: GalNAc3S(b1-4)GlcNAc
# Method in brief: as §1
# GalNAc3S(b1-4)GlcNAc3S = molecular target: GalNAc3S(b1-4)GlcNAc3S
# Method in brief: as §1
# [4] = molecular target: GalNAc3S(b1-4)[Fuc(a1-3)]GlcNAc
# Method in brief: as §1
# GalNAc4S6S(b1-4)GlcNAc = molecular target: GalNAc4S6S(b1-4)GlcNAc
# Method in brief: as §1
# GalNAc6S(b1-4)GlcNAc = molecular target: GalNAc6S(b1-4)GlcNAc
# Method in brief: as §1
# Glc(a1-4)Glc = molecular target: Glc(a1-4)Glc
# Method in brief: as §1
# [5] = molecular target: Glc(a1-4)Glc(a1-4)Glc(a1-4)Glc
# Method in brief: as §1
# Glc(a1-6)Glc(a1-6)Glc = molecular target: Glc(a1-6)Glc(a1-6)Glc
# Method in brief: as §1
# [6] = molecular target: Glc(a1-6)Glc(a1-6)Glc(a1-6)Glc
# Method in brief: as §1
# Glc(b1-4)Glc = molecular target: Glc(b1-4)Glc
# Method in brief: as §1
# Glc(b1-6)Glc = molecular target: Glc(b1-6)Glc
# Method in brief: as §1
# GlcA(b1-3)Gal = molecular target: GlcA(b1-3)Gal
# Method in brief: as §1
# GlcA(b1-3)GlcNAc = molecular target: GlcA(b1-3)GlcNAc
# Method in brief: as §1
# GlcA(b1-6)Gal = molecular target: GlcA(b1-6)Gal
# Method in brief: as §1
# [7] = molecular target: GlcA3S(b1-3)Gal(b1-4)GlcNAc(b1-2)Man
# Method in brief: as §1
# [8] = molecular target: GlcA3S(b1-3)Gal(b1-4)GlcNAc(b1-3)Gal(b1-4)Glc
# Method in brief: as §1
# [9] = molecular target: GlcNAc(a1-3)Gal(b1-4)GlcNAc
# Method in brief: as §1
# [10] = molecular target: GlcNAc(a1-4)Gal(b1-3)GlcNAc
# Method in brief: as §1
# [11] = molecular target: GlcNAc(a1-4)Gal(b1-4)GalNAc
# Method in brief: as §1
# [12] = molecular target: GlcNAc(a1-4)Gal(b1-4)GlcNAc
# Method in brief: as §1
# [13] = molecular target: GlcNAc(a1-4)Gal(b1-4)GlcNAc(b1-3)Gal(b1-4)Glc
# Method in brief: as §1
# [14] = molecular target: GlcNAc(a1-4)Gal(b1-4)GlcNAc(b1-3)Gal(b1-4)GlcNAc
# Method in brief: as §1
# [15] = molecular target: GlcNAc(a1-4)Gal(b1-4)GlcNAc(b1-3)Gal(b1-4)GlcNAc(b1-3)Gal(b1-4)GlcNAc
# Method in brief: as §1
# [16] = molecular target: GlcNAc(a1-4)Gal(b1-4)GlcNAc(b1-3)Gal(b1-4)[Fuc(a1-3)]GlcNAc(b1-3)Gal(b1-4)[Fuc(a1-3)]GlcNAc
# Method in brief: as §1
# [17] = molecular target: GlcNAc(a1-6)Gal(b1-4)GlcNAc
# Method in brief: as §1
# [18] = molecular target: GlcNAc(b1-2)Gal(b1-3)GalNAc
# Method in brief: as §1
# [19] = molecular target: GlcNAc(b1-2)Man(a1-3)[GlcNAc(b1-2)Man(a1-6)]Man(b1-4)GlcNAc(b1-4)GlcNAc
# Method in brief: as §1
# [20] = molecular target: GlcNAc(b1-2)Man(a1-3)[GlcNAc(b1-2)Man(a1-6)]Man(b1-4)GlcNAc(b1-4)[Fuc(a1-6)]GlcNAc
# Method in brief: as §1
# [21] = molecular target: GlcNAc(b1-2)Man(a1-3)[GlcNAc(b1-4)][GlcNAc(b1-2)Man(a1-6)]Man(b1-4)GlcNAc(b1-4)GlcNAc
# Method in brief: as §1
# [22] = molecular target: GlcNAc(b1-2)Man(a1-3)[GlcNAc(b1-4)][GlcNAc(b1-2)Man(a1-6)]Man(b1-4)GlcNAc(b1-4)[Fuc(a1-6)]GlcNAc
# Method in brief: as §1
# [23] = molecular target: GlcNAc(b1-2)[GlcNAc(b1-4)]Man(a1-3)[GlcNAc(b1-2)Man(a1-6)]Man(b1-4)GlcNAc(b1-4)GlcNAc
# Method in brief: as §1
# [24] = molecular target: GlcNAc(b1-2)[GlcNAc(b1-4)]Man(a1-3)[GlcNAc(b1-4)][GlcNAc(b1-2)Man(a1-6)]Man(b1-4)GlcNAc(b1-4)GlcNAc
# Method in brief: as §1
binder,measurement,setting,value
B1,glycan array binding signal (z-score),[1],-0.169
same,glycan array binding signal (z-score),[2],0.687
same,glycan array binding signal (z-score),[3],0.074
same,glycan array binding signal (z-score),GalNAc(b1-4)GlcNAc6S,0.113
same,glycan array binding signal (z-score),GalNAc(b1-6)GalNAc,-0.073
same,glycan array binding signal (z-score),GalNAc3S(b1-4)GlcNAc,-0.581
same,glycan array binding signal (z-score),GalNAc3S(b1-4)GlcNAc3S,-0.565
same,glycan array binding signal (z-score),[4],-0.48
same,glycan array binding signal (z-score),GalNAc4S6S(b1-4)GlcNAc,-0.307
same,glycan array binding signal (z-score),GalNAc6S(b1-4)GlcNAc,0.147
same,glycan array binding signal (z-score),Glc(a1-4)Glc,-0.602
same,glycan array binding signal (z-score),[5],-0.027
same,glycan array binding signal (z-score),Glc(a1-6)Glc(a1-6)Glc,-0.571
same,glycan array binding signal (z-score),[6],0.585
same,glycan array binding signal (z-score),Glc(b1-4)Glc,-0.211
same,glycan array binding signal (z-score),Glc(b1-6)Glc,-0.397
same,glycan array binding signal (z-score),GlcA(b1-3)Gal,-0.402
same,glycan array binding signal (z-score),GlcA(b1-3)GlcNAc,-0.373
same,glycan array binding signal (z-score),GlcA(b1-6)Gal,-0.474
same,glycan array binding signal (z-score),[7],-0.449
same,glycan array binding signal (z-score),[8],-0.74
same,glycan array binding signal (z-score),[9],-0.067
same,glycan array binding signal (z-score),[10],0.004
same,glycan array binding signal (z-score),[11],-0.551
same,glycan array binding signal (z-score),[12],0.117
same,glycan array binding signal (z-score),[13],-0.491
same,glycan array binding signal (z-score),[14],-0.491
same,glycan array binding signal (z-score),[15],0.383
same,glycan array binding signal (z-score),[16],0.448
same,glycan array binding signal (z-score),[17],1.87
same,glycan array binding signal (z-score),[18],-0.315
same,glycan array binding signal (z-score),[19],-0.457
same,glycan array binding signal (z-score),[20],0.35
same,glycan array binding signal (z-score),[21],-0.413
same,glycan array binding signal (z-score),[22],-0.396
same,glycan array binding signal (z-score),[23],-0.197
same,glycan array binding signal (z-score),[24],-0.493
